Laboratory results reported in patent US20240209028A1, “CNP COMPOUNDS” (priority 2022, published 2024).
For part of these data: At least one read-out could not be matched to a standard name with certainty. For part of these data: At least one compound was matched to its structure with a doubt left. Starred links: 1 amine or outer side, 2 acyl side, 3 side chain; linkers in the order of their positions; H or OH if unused. Positions of bridges follow the written chain, without caps; N, C: chain ends. Residues, ends and D or L forms follow the SMILES beside them. *: point of attachment. C20 diacid = O=C(O)CCCCCCCCCCCCCCCCCCC(=O)*; C18 diacid = O=C(O)CCCCCCCCCCCCCCCCC(=O)*; γGlu = O=C(O)[C@H](CCC(=O)[*:2])N[*:1]; AEEA = NCCOCCOCC(=O)O

Columns and labels:
[1] = target: T1, human natriuretic peptide receptor 2 (hNPR2) (Homo sapiens, UniProt P20594); assay: In vitro hNPR2 activity assay (cGMP GloSensor reporter, HEK293); format: cell-based; conditions: read-out: hNPR2 0% HSA. [EC50 (nM)], HEK293-hNPR2/GloSensor cells
T1 construct: expressed in transfected cells; host or cells: HEK293 (ATCC CRL-1573), clone 35, co-transfected with pGloSensor-42F
T1 sequence (P20594 23-1047): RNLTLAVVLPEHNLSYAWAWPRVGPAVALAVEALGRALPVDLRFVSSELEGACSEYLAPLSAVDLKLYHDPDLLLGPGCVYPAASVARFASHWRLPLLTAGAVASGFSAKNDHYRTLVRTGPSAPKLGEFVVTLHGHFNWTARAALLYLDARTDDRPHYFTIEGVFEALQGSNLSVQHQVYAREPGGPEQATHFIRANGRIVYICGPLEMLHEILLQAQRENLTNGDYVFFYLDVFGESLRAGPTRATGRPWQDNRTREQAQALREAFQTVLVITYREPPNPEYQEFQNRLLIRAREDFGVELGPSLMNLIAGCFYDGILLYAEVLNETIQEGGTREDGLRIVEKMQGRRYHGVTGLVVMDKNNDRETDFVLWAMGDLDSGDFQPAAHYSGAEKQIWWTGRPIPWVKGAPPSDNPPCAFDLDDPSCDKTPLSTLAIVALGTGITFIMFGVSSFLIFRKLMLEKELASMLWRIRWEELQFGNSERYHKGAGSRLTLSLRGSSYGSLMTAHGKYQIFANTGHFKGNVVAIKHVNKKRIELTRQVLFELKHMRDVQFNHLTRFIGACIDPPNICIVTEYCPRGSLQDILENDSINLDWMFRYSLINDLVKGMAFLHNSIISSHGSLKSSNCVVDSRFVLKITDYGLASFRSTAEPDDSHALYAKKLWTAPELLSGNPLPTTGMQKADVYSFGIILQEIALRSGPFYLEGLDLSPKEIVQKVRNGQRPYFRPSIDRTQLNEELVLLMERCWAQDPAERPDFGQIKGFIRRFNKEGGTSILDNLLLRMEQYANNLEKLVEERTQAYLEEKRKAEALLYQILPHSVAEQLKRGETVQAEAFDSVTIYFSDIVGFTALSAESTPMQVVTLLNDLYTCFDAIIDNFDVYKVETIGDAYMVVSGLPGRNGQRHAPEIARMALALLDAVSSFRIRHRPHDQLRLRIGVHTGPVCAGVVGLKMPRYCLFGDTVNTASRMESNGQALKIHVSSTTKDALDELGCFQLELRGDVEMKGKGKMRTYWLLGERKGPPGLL
Method: To evaluate the in vitro activity of CNP22 (0065; Chem. 1) and CNP compounds of the invention, they were tested for their ability to induce production of cyclic guanosine monophosphate (cGMP) in reporter cells expressing the human natriuretic peptide receptor 2 (hNPR2).
Cell culture: To produce the reporter cell line, HEK293 (ATCC® CRL-1573™) cells were stably transfected with the pGloSensor-42F reporter plasmid (GloSensor cGMP reporter—luciferase, Promega) and an expression plasmid encoding the hNPR2 receptor. A single cell clone was isolated for the reporter cell line. When reporter cells are exposed to an hNPR2 activating compound, hNPR2 cause production of cGMP. […] Active GloSensor luciferase is able to convert luciferin to oxyluciferin, a process that produces bioluminescence. Upon cell lysis and supply of luciferase substrate, luciferase activity can be quantified by detection of luminescence. Therefore, addition of an hNPR2 activating compound and subsequent addition of detection reagent to reporter cells causes generation of luminescence in a dose dependent manner. […]
Procedure: HEK293-hNPR2/GloSensor clone 35 cells were continuously cultured in selection medium (DMEM containing 10% FCS, 1% P/S, 200 μg/mL G418 and 100 μg/mL hygromycin). […] A minimum of two replicates was measured for each test compound.

[2] = Accelerated chemical stability (RP-UPLC recovery and LCMS degradation pattern, 37° C.); format: physicochemical; conditions: LCMS, 6 week study
Method: In order to determine the chemical stability of CNP compounds in formulation, samples of CNP compounds in buffer were exposed to accelerated chemical degradation by heating. The stability of a given peptide was assessed by measuring recovery of intact peptide by quantification by RP-UPLC. To assess the chemical degradation pattern samples were also analysed by LC-MS.
Sample preparation: Samples for the 2 week study were prepared according to the principles described in Example 5.
Samples for the 6 week study were prepared by dissolving lyophilized peptide in buffer (8 mM phosphate, 250 mM glycerol, pH 7.4) to a nominal peptide concentration of 5000 nmol/ml followed by pH adjustment with 0.1 N HCl to pH 6.5.
Incubation: For the 2 week study a time-zero (TZ) sample was pulled and stored at −18° C. and the remaining volume was incubated at 37° C. Samples were pulled and stored at −18° C. after 2 weeks of incubation. Frozen samples were thawed, diluted to about 200 nmol/mL and the extent of chemical degradation was determined using LCMS as described.
For the 6 week study a time-zero (TZ) sample was pulled and stored at −18° C. and the remaining volume was incubated at 37° C. Samples were pulled on a weekly basis and stored at −18° C. until the last sampling time point at 6 weeks. Frozen samples were thawed, diluted to about 200 nmol/mL and the extent of chemical degradation was determined using RP-UPLC and LCMS as described.
Analysis of peptide recovery by RP-UPLC: The RP-UPLC method was performed on a Waters ACQUITY H-CLASS UPLC system fitted with a PDA detector. Separation was carried out on an ACQUITY UPLC BEH C8 Column (130 Å, 1.7 μm, 2.1 mm×150 mm) operating at a column temperature of 50° C. with eluent A (19.59 mM NH4H2PO4 41.71 mM (NH4)2HPO4, pH 6.5 and MeCN 9:1 v:v) and eluent B (80% MeCN in water). UV-detection was carried out at 214 nm. The analysis was performed by injection of 3 μL of sample onto the column which was eluted with a 1-step linear gradient of eluents A and B from 27 to 30% B over 20 minutes followed by a wash at 95% B over 2 minutes followed by a re-equilibration phase for 7 minutes at a constant flow rate of 0.3 mL/min. This yielded an analysis time of 30 minutes per sample. The area of the peak corresponding to intact CNP compound was given on a percentage scale relative to the total peptide peak area.
Analysis of chemical degradation patterns by LCMS: Samples were analysed on a […] UPLC from Thermo Scientific, using a Waters Acquity C18 reversed-phase column, 300 Å, […] particles 1 mm×150 mm. The compounds were separated by a linear gradient of solvent B from 5% to 55% over 48 minutes, using solvent A: water, 0.1% formic acid with 0.02% TFA and solvent B: acetonitrile, 0.1% formic acid with 0.02% TFA. Mass spectra were acquired by a Q Exactive Plus hybrid Quadrupole-Orbitrap mass spectrometer, BioPharma option (Thermo Scientific) interfaced with H-ESI II ion source. Data acquisitions were performed with a m/z 500 to 2000 scan range and a resolution of 30000.
The data list was aggregated into a summed table of the compounds. The table headers were defined as follows: […]
Results: The results from LCMS analysis of a 2 week accelerated degradation study on several CNP compounds of the present invention are summarised in Table 12. The results from RP-UPLC and LCMS analysis of a 6 week accelerated degradation study on CNP compound 9482 (Chem. 137) is summarised in Table 13 and Table 14 respectively.

[3] = Thioflavin T (ThT) assay: lagtime and peptide recovery; format: physicochemical; conditions: ThT assay, pH 6.5, after 45h incubation
Method in brief: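 ThT (final about 1 μM) was added to peptide supernatants at pH 4.0 and 6.5 and incubated at 37 °C with orbital shaking for 45 h. Fluorescence (ex 444/em 485 nm) was read every 20 min, and lag-time was taken as the time to onset of signal rise. Recovery is the RP-UPLC (215 nm) total peak area after vs. before incubation.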

| Compound | EC50 [1] [nM] | Recovery 1 W ([2]; 1 week at 37° C.) | Recovery 2 W ([2]; 2 weeks at 37° C.) | Recovery 3 W ([2]; 3 weeks at 37° C.) | Recovery 4 W ([2]; 4 weeks at 37° C.) | Recovery 5 W ([2]; 5 weeks at 37° C.) | Recovery 6 W ([2]; 6 weeks at 37° C.) | Recovery TZ ([2]; time zero) | Peptide Recovery (%) at pH 6.5 [3] [%] |
| --- | --- | --- | --- | --- | --- | --- | --- | --- | --- |
| CC[C@H](C)[C@@H]1NC(=O)[C@H](CCCNC(=N)N)NC(=O)[C@H](CC(=O)O)NC(=O)[C@H](CC(C)C)NC(=O)[C@@H]2CCCN2C(=O)[C@H](CC(C)C)NC(=O)CNC(=O)[C@H](Cc2ccccc2)NC(=O)[C@@H](NC(=O)CNC(=O)[C@H](CCCCN)NC(=O)[C@H](CO)NC(=O)[C@H](CC(C)C)NC(=O)CNC(=O)[C@H](CCCCN)NC(=O)[C@H](CCCCN)NC(=O)[C@H](CCC(N)=O)NC(=O)[C@H](C)NC(=O)CNC(=O)[C@H](CCC(=O)O)NC(=O)[C@H](Cc2ccc(O)cc2)NC(=O)COCCOCCNC(=O)COCCOCCNC(=O)CC[C@H](NC(=O)CCCCCCCCCCCCCCCCCCC(=O)O)C(=O)O)CSSC[C@@H](C(=O)O)NC(=O)CNC(=O)[C@H](CC(C)C)NC(=O)CNC(=O)[C@H](CO)NC(=O)[C@H](CC(C)C)NC(=O)[C@H](CO)NC(=O)CNC1=O [compound 1376] ({C20 diacid-γGlu-AEEA-AEEA}-YEGAQKKGLSKGCFGLPLDRIGSLSGLGC-OH; disulfide 13-29) | 0.12 | – | – | – | – | – | – | – | – |
| CC[C@H](C)[C@@H]1NC(=O)[C@H](CCCNC(=N)N)NC(=O)[C@H](CC(=O)O)NC(=O)[C@H](CC(C)C)NC(=O)[C@@H]2CCCN2C(=O)[C@H](CC(C)C)NC(=O)CNC(=O)[C@H](Cc2ccccc2)NC(=O)[C@@H](NC(=O)CNC(=O)[C@H](CO)NC(=O)[C@H](CO)NC(=O)[C@H](CC(C)C)NC(=O)CNC(=O)[C@H](CCCCN)NC(=O)[C@H](CCCCN)NC(=O)[C@H](CCC(N)=O)NC(=O)[C@H](C)NC(=O)CNC(=O)[C@H](CCCCN)NC(=O)[C@H](Cc2ccc(O)cc2)NC(=O)[C@H](CCCCN)NC(=O)[C@H](CCCNC(=N)N)NC(=O)[C@H](C)NC(=O)[C@H](CCC(N)=O)NC(=O)[C@@H]2CCCN2C(=O)[C@H](Cc2c[nH]cn2)NC(=O)[C@H](CCC(=O)O)NC(=O)[C@H](CCC(N)=O)NC(=O)CC[C@H](NC(=O)CC[C@H](NC(=O)CC[C@H](NC(=O)CC[C@H](NC(=O)CC[C@H](NC(=O)CCCCCCCCCCCCCCCCC(=O)O)C(=O)O)C(=O)O)C(=O)O)C(=O)O)C(=O)O)CSSC[C@@H](C(=O)O)NC(=O)CNC(=O)[C@H](CC(C)C)NC(=O)CNC(=O)[C@H](CO)NC(=O)[C@H](CC(C)C)NC(=O)[C@H](CO)NC(=O)CNC1=O [compound 9482] ({C18 diacid-γGlu-γGlu-γGlu-γGlu-γGlu}-QEHPQARKYKGAQKKGLSSGCFGLPLDRIGSLSGLGC-OH; disulfide 21-37) | – | 100.10 | 99.50 | 98.90 | 95.10 | 94.70 | 92.30 | 100.00 | 93 |
